PubChem BioAssay AID624417 (National Center for Advancing Translational Sciences (NCATS), 2012)
Hit rate of the full screen: of about 410,000 compounds, about 6,400 (1.6%) were called active. The inconclusive results got no clear call from the source; some entries with a clear call stand among them for comparison. Calls come from the whole dose curve; as a rule, active = well fitted inhibition curve with a large enough effect; inconclusive = small, poorly fitted or top-dose-only effect; inactive = no such curve, though single readings can be large or run the other way. Potencies of inconclusive entries are left out as doubtful fits.

What follows are compounds tested against Glucagon-like peptide 1 receptor (Homo sapiens) (UniProt P43220) (assay: qHTS of GLP-1 Receptor Inverse Agonists (Inhibition Mode)). Settings: HEK293 GLP-1R CRE-luciferase, luminescence, 24 h, GLP-1R form is constitutively active; activity change, negative = inhibition: at 38.3 µM (top of the series) unless noted.
Procedure, shortened: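 HEK293 cells stably co-expressing constitutively active GLP-1R and a cAMP-responsive luciferase reporter were seeded in DMEM with 10% Nu serum, given compounds after 12 h, and incubated 24 h at 37 deg C. Luminescence was then read.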
% is set by controls: 0 for no effect and ±100 for the full control effect; potency is the fitted concentration of half-maximal effect; tags give direction and shape of the fitted curve.
Note: nearly all actives have a fitted effect of over 55% in size.

Chain of UniProt P43220 (P43220 whole entry, looked up): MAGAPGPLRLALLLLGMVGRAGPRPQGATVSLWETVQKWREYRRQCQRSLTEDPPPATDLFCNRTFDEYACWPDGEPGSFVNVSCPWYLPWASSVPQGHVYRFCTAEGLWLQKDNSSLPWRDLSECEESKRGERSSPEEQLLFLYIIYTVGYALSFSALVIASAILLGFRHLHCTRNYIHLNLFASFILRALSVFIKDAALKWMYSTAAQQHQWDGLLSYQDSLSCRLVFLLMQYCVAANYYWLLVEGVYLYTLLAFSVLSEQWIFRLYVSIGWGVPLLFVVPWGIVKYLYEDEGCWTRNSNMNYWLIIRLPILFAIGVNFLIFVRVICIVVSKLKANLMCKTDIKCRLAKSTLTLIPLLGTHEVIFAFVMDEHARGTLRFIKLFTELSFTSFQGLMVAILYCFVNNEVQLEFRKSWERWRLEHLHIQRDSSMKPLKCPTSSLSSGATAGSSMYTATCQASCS

SMILES | Potency | activity change, negative = inhibition
O=C(c1cc2ccccc2o1)N1CCN(Cc2nc3ccccc3s2)CC1 | inconclusive [inhibitor, partial curve, poor fit] | 
CCOC(=O)CSC1=C(C#N)C(c2ccc(C)s2)CC(=O)N1 (stereo not given) | inconclusive [inhibitor, partial curve, poor fit] | 
CCn1nnc2cc(C(=O)Nc3ccc(C)cc3Br)ccc21 | inactive | 
O=C(CSCc1ccc(Cl)cc1)Nc1ccc(S(=O)(=O)N2CCCCCC2)cc1 | inconclusive [inhibitor, partial curve, poor fit] | 
CC(C)CC(=O)C1CCCN(C(=O)c2ccc3oc(Cc4ccccc4)nc3c2)C1 (stereo not given) | inconclusive [inhibitor, partial curve, poor fit] | 
C=CCN1C(=O)c2ccc(C(=O)N(C)CC(=O)Nc3ccccc3C(F)(F)F)cc2C1=O | inactive | 
C/C(=N\NC(=S)Nc1ccc(C(C)C)cc1)c1ccc2c(c1)OCO2 |  | inactive: -7.93% [at 0.307 µM]
CCCSc1ccc([C@@H]2[C@@H]3C(=O)N(C)C(=O)[C@@H]3[C@]3(C(=O)OC)CCCCN23)cc1OC | inconclusive [inhibitor, single point] | 
COc1ccc(C(=O)NC(C(=O)N2CCN(c3ccccc3O)CC2)C(C)C)cc1 (stereo not given) | inconclusive [inhibitor, single point] | 
CC(=O)NCCC1CCCCN1Cc1nc(Cc2cccc(C(F)(F)F)c2)no1 (stereo not given) | inconclusive [inhibitor, partial curve, poor fit] | 
CSc1ccc(Cn2c(C)c(C(=O)NCc3cccc(C(F)(F)F)c3)sc2=O)cc1 | inconclusive [inhibitor, single point] | 
COc1ccccc1-c1nnc(C2CCN(S(=O)(=O)c3ccccc3[N+](=O)[O-])CC2)o1 | inconclusive [inhibitor, single point] | 
Cc1nn2c(=O)cc(COC(=O)c3ccc(NC(=O)COc4ccc(Cl)cc4)cc3)nc2s1 | inconclusive [inhibitor, single point] | 
Cc1nn(Cc2ccc(Cl)cc2)c(C)c1NC(=O)c1ccc([N+](=O)[O-])cc1 | inconclusive [inhibitor, single point] | 
O=c1c(Cl)c(N2CCC3(CC2)OCCO3)cnn1C12CC3CC(CC(C3)C1)C2 | inconclusive [inhibitor, full curve, poor fit] | 
CCN1CCN(c2ccc(S(=O)(=O)N3CCCCC3)cc2NC(=O)Cc2ccc(Cl)c(Cl)c2)CC1 | inconclusive [inhibitor, partial curve, poor fit] | 
COc1ccc(/C=C/C(=O)NC(=S)Nc2ccccn2)cc1 | inactive | 
CCOC(=O)c1c(NC(=O)CN2C(=O)NC3(CCCC3)C2=O)sc(C)c1CC | inconclusive [inhibitor, single point] | 
CCn1c(C)c(C)c2cc(C(=O)Nc3cccc(Cl)c3)ccc21 | inconclusive [inhibitor, partial curve, poor fit] | 
O=P(c1ccccc1)(c1ccccc1)c1cc(Br)cc(Br)c1OCCO | inconclusive [inhibitor, full curve, poor fit] | 

SMILES | Potency | activity change, negative = inhibition
Cc1oc(-c2ccc(Cl)cc2)nc1CN1CCC(C(=O)NCCCN2CCCC(C)C2)CC1 (stereo not given) | inconclusive [inhibitor, full curve, poor fit] | 
CCN(CC)c1cc(C)c2cc(NC(=O)c3ccccc3F)ccc2n1 | inconclusive [inhibitor, single point] | 
COc1ccccc1N1CCN(C(=O)NC23CC4CC(CC(C4)C2)C3)CC1 | inconclusive [inhibitor, partial curve, poor fit] | 
CC1(C)CC(=O)C2=C(C1)Nc1ccccc1NC2c1ccc(F)c(F)c1 (stereo not given) | inconclusive [inhibitor, single point] | 
CC(C)(C)N1C(=O)c2ccccc2NC(=O)N1Cc1ccc(Br)cc1 | inconclusive [inhibitor, single point] | 
O=C(COc1ccccc1[N+](=O)[O-])c1ccccc1 | inactive | 
COc1ccc(-c2cc(C)no2)cc1S(=O)(=O)NCC(C)c1ccccc1 (stereo not given) | inconclusive [inhibitor, single point] | 
COc1cc(C(O)P(=O)(OCCC(C)C)c2ccc(N(C)C)cc2)cc(OC)c1OC (stereo not given) | inactive | 
OC(CN1CCN(c2cccc(Cl)c2)CC1)C(c1ccccc1)c1ccccc1 (stereo not given) | inconclusive [inhibitor, partial curve, poor fit] | 
COc1ccc([C@H]2N[C@]3(CCCN(Cc4ccc(F)cc4)C3=O)[C@H]3C(=O)N(Cc4ccccc4)C(=O)[C@@H]23)cc1 | inactive | 
Cc1ccc(-n2nnnc2SCC(=O)c2cc(C)n(-c3cc(C)on3)c2C)c(C)c1 | inconclusive [inhibitor, single point] | 
OC(c1ccccc1)(C1CCCCC1)C(CN1CCOCC1)c1ccccc1 (stereo not given) | inconclusive [inhibitor, full curve, poor fit] | 
Cn1c(CCNC(=O)c2ccc(F)cc2)nc2ccccc21 | inactive | 
COc1ccc(CCn2c(=N)c(C(=O)NCc3ccco3)cc3c(=O)n4ccccc4nc32)cc1OC | inactive | 
NC(=O)CC(NC(=O)Cc1cccc2ccccc12)c1ccc(NC2CC3CCC2C3)c([N+](=O)[O-])c1 (stereo not given) | inconclusive [inhibitor, single point] | 
O=C(CN(c1cc(C(F)(F)F)ccc1Cl)S(=O)(=O)c1ccccc1)NCCc1ccccc1 | inconclusive [inhibitor, partial curve, poor fit] | 
COc1ccc(N(C)S(=O)(=O)c2cccc(C(=O)NC3CCCC(C)C3C)c2)cc1 (stereo not given) | inconclusive [inhibitor, partial curve, poor fit] | 
Cc1cc(C(=O)NC(=S)Nc2ccccc2N2CCOCC2)ccc1[N+](=O)[O-] | inconclusive [inhibitor, partial curve, poor fit] | 
CCN(CC)C(=O)c1oc2ccc(S(=O)(=O)N3CC(C)CC(C)C3)cc2c1C (stereo not given) | inconclusive [inhibitor, partial curve, poor fit] | 
CC1=NN(C(N)=S)C(=O)C1N=Nc1ccc(O)cc1 (stereo not given) | inconclusive [inhibitor, single point] | 

SMILES | Potency | activity change, negative = inhibition
COc1cccc(NC(=O)CCSc2ccc3ccccc3n2)c1 | inconclusive [inhibitor, single point] | 
O=C(Nc1cc(Cl)cc(Cl)c1)N1CCCN(Cc2ccccc2)CC1 | inconclusive [inhibitor, partial curve, poor fit] | 
N#Cc1nc(Cc2cccc3ccccc23)oc1NCc1ccc(F)cc1 | inconclusive [inhibitor, partial curve, poor fit] | 
CCN(C(=O)Cn1c(=O)oc2ccccc21)c1cccc(C(F)(F)F)c1 | inconclusive [inhibitor, single point] | 
Cc1sc(-n2cccc2)c(C(C)NC(=O)Nc2ccccc2Cl)c1C (stereo not given) | inconclusive [inhibitor, single point] | 
Cc1cccc(C)c1-n1nnnc1C(c1ccnc2ccccc12)N1CCOCC1 (stereo not given) | inactive | 
CC1=C(C(=O)Nc2ccccc2C)C(c2ccco2)n2ncnc2N1 (stereo not given) | inconclusive [inhibitor, single point] | 
CCc1nc2ccc(C(=O)NCc3ccc4c(c3)OCO4)cn2c1N(C)Cc1ccc(OC)cc1 | inconclusive [inhibitor, single point] | 
Cc1nn(-c2ccccc2)c2c1C(c1ccc(Cl)cc1)N(c1ccccc1)C(=O)N2 (stereo not given) | inconclusive [inhibitor, single point] | 
Cc1ccc(-c2cc(-c3ccccc3Cl)[nH]n2)c(O)c1 | inconclusive [inhibitor, single point] | 
CCCC(=O)Nc1ccc2c(c1)c1ccccc1n2CC | inactive | 
O=C(CCCc1nc(-c2ccccc2)no1)Nc1cc(C(F)(F)F)cc(C(F)(F)F)c1 | inconclusive [inhibitor, single point] | 
CCN(Cc1ccccc1)S(=O)(=O)c1ccc(C(=O)N(CCCN(C)C)c2nc3cc(OC)ccc3s2)cc1 | inconclusive [inhibitor, single point] | 
CCc1sc(C(=O)Nc2cccc(C(C)=O)c2)cc1C | inconclusive [inhibitor, single point] | 
CCOC(=O)[C@]12CCC=C1N(Cc1ccco1)C(=O)[C@H](CC(=O)N1CCSCC1)C2 | inactive | 
CC(C)COc1ccc(C(=O)Nc2ccccc2[N+](=O)[O-])cc1 | inconclusive [inhibitor, single point] | 
Cc1ccc(N2CCN(C(=O)C3CCC(=O)N(Cc4ccc(Cl)cc4)C3)CC2)c(C)c1 (stereo not given) | inconclusive [inhibitor, single point] | 
O=C(Nc1scc(-c2ccccc2)c1C(=O)O)c1ccccc1F | inconclusive [inhibitor, single point] | 
Fc1cccc(Cc2c(-c3cccc(Cl)c3)nc3ccc(Cl)cn23)c1 | inconclusive [inhibitor, full curve, poor fit] | 
Cc1n[nH]c(C)c1CCc1nc2c3ccccc3nc(SCC(=O)Nc3ccc(F)cc3)n2n1 | inconclusive [inhibitor, single point] | 
